Some of the results follow. At the low end of the ranking, values are background and their order means little.
molecular target: GST-SBP-SLBP (stem-loop binding protein) (UniProt Q14493); assay: targeted RNA Bind-n-Seq; details: RBNS binding buffer: 25 mM Tris pH 7.5, 150 mM KCl, 3 mM MgCl2, 0.1% Tween, 0.5 mg/mL BSA, 1 mM DTT; 27 nM protein, 750 pM RNA pool; temperature not stated; high values mean tight binding;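 further: DESeq read counts versus GST-SBP nonspecific binding control pulldown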

Row | Sequence | binding signal (log2 fold change)
1 | GGUCACGUCUCAAUCAACUCUAUCUCCAGGGAAACCCCUGGCAAUGUCAACAGCUCGCAGUCAAG | 0.0551
2 | GGUCACGUCUCAAUCAACUCUUAAGAGGGGGGGAAAACCCCUUUACCCUCAUUUUCAACAGCUCGCAGUCAAG | -0.259
3 | GGUCACGUCUCAAUCAACUCAUUUCCAGGAGUUUCCUCCUGUAGUCUCAACAGCUCGCAGUCAAG | 0.0973
4 | GGUCACGUCUCAAUCAACUCUUCUUCCAGGGAAACCCCUGGCUUUUUCAACAGCUCGCAGUCAAG | -0.0384
5 | GGUCACGUCUCAAUCAACUCAACUUCCAGGGAAAUCCCUGGUAAUCUCAACAGCUCGCAGUCAAG | -0.0858
6 | GGUCACGUCUCAAUCAACUCUACUUCCAGGGAAACCCCUGGUAUUCUCAACAGCUCGCAGUCAAG | 0.278
7 | GGUCACGUCUCAAUCAACUCAACUUCAGGAGUUUACUCCUGUAUUCUCAACAGCUCGCAGUCAAG | 0.0532
8 | GGUCACGUCUCAAUCAACUCAUCCCCAGGAGUUUACUCCUGCUAUUUCAACAGCUCGCAGUCAAG | -0.0351
9 | GGUCACGUCUCAAUCAACUCUAUUUCAGGAGUUUACUCCUGCUAACUCAACAGCUCGCAGUCAAG | 0.0206
10 | GGUCACGUCUCAAUCAACUCAUCUCCCAGGGAAAACCCUGGCAAUCUCAACAGCUCGCAGUCAAG | -0.0791
11 | GGUCACGUCUCAAUCAACUCUAUUCCAGGAGUUUCCUCCUGUUAUUUCAACAGCUCGCAGUCAAG | 0.18
12 | GGUCACGUCUCAAUCAACUCUUCUCCCAGGGAAAGCCCUGGUAUUUUCAACAGCUCGCAGUCAAG | 0.0462
13 | GGUCACGUCUCAAUCAACUCCAAAGAGGGGGGGAAAACCCCUUUACCCUCACAUUCAACAGCUCGCAGUCAAG | -0.148
14 | GGUCACGUCUCAAUCAACUCAACUUCAGGAGUUUCCUCCUGCAAUUUCAACAGCUCGCAGUCAAG | 0.245
15 | GGUCACGUCUCAAUCAACUCAGUCUCAGGAGUUUCCUCCUGCAUUCUCAACAGCUCGCAGUCAAG | -0.0682
16 | GGUCACGUCUCAAUCAACUCAGUUCCAGGAGUUUACUCCUGUAUUUUCAACAGCUCGCAGUCAAG | -0.226
17 | GGUCACGUCUCAAUCAACUCAAUUUCAGGAGUUUUCUCCUGUAUUUUCAACAGCUCGCAGUCAAG | 0.102
18 | GGUCACGUCUCAAUCAACUCUUUCUCCAGGGAAAUCCCUGGUUAACUCAACAGCUCGCAGUCAAG | -0.0842
19 | GGUCACGUCUCAAUCAACUCCCAAAGGUUUUUCUCAGAACCACCCAUCAACAGCUCGCAGUCAAG | 0.402
20 | GGUCACGUCUCAAUCAACUCUAUUUCAGGAGUUUUCUCCUGUUAUCUCAACAGCUCGCAGUCAAG | -0.000102
21 | GGUCACGUCUCAAUCAACUCAUCCUCCAGGGAAAACCCUGGUAAAUUCAACAGCUCGCAGUCAAG | -0.179
22 | GGUCACGUCUCAAUCAACUCUUUCGAGGGGGGGAAAACCCCUUUACCCUCACUUUCAACAGCUCGCAGUCAAG | -0.496
23 | GGUCACGUCUCAAUCAACUCUUCCUCAGGAGUUUUCUCCUGCAUACUCAACAGCUCGCAGUCAAG | 0.0201
24 | GGUCACGUCUCAAUCAACUCAACUUCCAGGGAAAGCCCUGGCAAAUUCAACAGCUCGCAGUCAAG | 0.0995
25 | GGUCACGUCUCAAUCAACUCUUCGGAGGGGGGGAAAACCCCUUUACCCUCAUUAUCAACAGCUCGCAGUCAAG | 0.00422

Row | Sequence | binding signal (log2 fold change)
26 | GGUCACGUCUCAAUCAACUCUCUCGAGGGGGGGAAAACCCCUUUACCCUCUUACUCAACAGCUCGCAGUCAAG | -0.11
27 | GGUCACGUCUCAAUCAACUCAACAGAGGGGGGGAAAACCCCUUUACCCUCCUAUUCAACAGCUCGCAGUCAAG | -0.19
28 | GGUCACGUCUCAAUCAACUCUAUUUCCAGGGAAAGCCCUGGCUAUCUCAACAGCUCGCAGUCAAG | -0.236
29 | GGUCACGUCUCAAUCAACUCAAUUUCCAGGGAAAUCCCUGGCAUACUCAACAGCUCGCAGUCAAG | 0.298
30 | GGUCACGUCUCAAUCAACUCAAUAGAGGGGGGGAAAACCCCUUUGCCCUCAAUAUCAACAGCUCGCAGUCAAG | -0.221
31 | GGUCACGUCUCAAUCAACUCAUCCUCAGGAGUUUACUCCUGUUUAGUCAACAGCUCGCAGUCAAG | 0.0607
32 | GGUCACGUCUCAAUCAACUCUUUAGAGGGGGGGAAAACCCCUUUACCCUCACCAUCAACAGCUCGCAGUCAAG | 0.0104
33 | GGUCACGUCUCAAUCAACUCCAAAGAGGGGGGGAAAACCCCUUUACCCUCGUAAUCAACAGCUCGCAGUCAAG | -0.204
34 | GGUCACGUCUCAAUCAACUCUACUCCAGGAGUUUUCUCCUGUUAACUCAACAGCUCGCAGUCAAG | -0.095
35 | GGUCACGUCUCAAUCAACUCAUCUUCAGGAGUUUUCUCCUGUGUAUUCAACAGCUCGCAGUCAAG | -0.035
36 | GGUCACGUCUCAAUCAACUCAUUCCCCAGGGAAACCCCUGGUUAAUUCAACAGCUCGCAGUCAAG | -0.052
37 | GGUCACGUCUCAAUCAACUCCAAAGAGGGGGGGAAAACCCCUUUACCCUCGUCAUCAACAGCUCGCAGUCAAG | -0.128
38 | GGUCACGUCUCAAUCAACUCAACUCCCAGGGAAAGCCCUGGUUUUCUCAACAGCUCGCAGUCAAG | 0.0722
39 | GGUCACGUCUCAAUCAACUCCAUGGAGGGGGGGAAAACCCCUUUACCCUCAUCCUCAACAGCUCGCAGUCAAG | -0.35
40 | GGUCACGUCUCAAUCAACUCAAACGAGGGGGGGAAAACCCCUUUACCCUCAACUUCAACAGCUCGCAGUCAAG | 0.35
41 | GGUCACGUCUCAAUCAACUCAUCCCCAGGAGUUUGCUCCUGUAAAUUCAACAGCUCGCAGUCAAG | -0.112
42 | GGUCACGUCUCAAUCAACUCAACUUCCAGGGAAAACCCUGGCUAUUUCAACAGCUCGCAGUCAAG | 0.0207
43 | GGUCACGUCUCAAUCAACUCAUCCUCAGGAGUUUCCUCCUGCUUUCUCAACAGCUCGCAGUCAAG | 0.112
44 | GGUCACGUCUCAAUCAACUCAUUCCCCAGGGAAACCCCUGGCUAUUUCAACAGCUCGCAGUCAAG | -0.223
45 | GGUCACGUCUCAAUCAACUCAUCUCCCAGGGAAAACCCUGGCUAUUUCAACAGCUCGCAGUCAAG | 0.00982
46 | GGUCACGUCUCAAUCAACUCUUUCUCCAGGGAAAACCCUGGCAUUCUCAACAGCUCGCAGUCAAG | 0.0686
47 | GGUCACGUCUCAAUCAACUCAACUUCAGGAGUUUUCUCCUGUUAUUUCAACAGCUCGCAGUCAAG | -0.0564
48 | GGUCACGUCUCAAUCAACUCCACUGAGGGGGGGAAAACCCCUUUACCCUCCAAAUCAACAGCUCGCAGUCAAG | 0.0798
49 | GGUCACGUCUCAAUCAACUCAGUUUCCAGGGAAACCCCUGGUUUAUUCAACAGCUCGCAGUCAAG | -0.0957
50 | GGUCACGUCUCAAUCAACUCAACUCCAGGAGUUUACUCCUGCUAUUUCAACAGCUCGCAGUCAAG | 0.037

Row | Sequence | binding signal (log2 fold change)
51 | GGUCACGUCUCAAUCAACUCUUUCCCCAGGGAAACCCCUGGCAAUUUCAACAGCUCGCAGUCAAG | 0.111
52 | GGUCACGUCUCAAUCAACUCAUUCUCCAGGGAAAACCCUGGUUAUUUCAACAGCUCGCAGUCAAG | -0.274
53 | GGUCACGUCUCAAUCAACUCAAUGUCAGGAGUUUUCUCCUGUUAAUUCAACAGCUCGCAGUCAAG | -0.0274
54 | GGUCACGUCUCAAUCAACUCUAUCGAGGGGGGGAAAACCCCUUUGCCCUCACAUUCAACAGCUCGCAGUCAAG | -0.204
55 | GGUCACGUCUCAAUCAACUCAUCGUCAGGAGUUUCCUCCUGUAUACUCAACAGCUCGCAGUCAAG | 0.184
56 | GGUCACGUCUCAAUCAACUCAGUUUCAGGAGUUUUCUCCUGCUAAUUCAACAGCUCGCAGUCAAG | -0.066
57 | GGUCACGUCUCAAUCAACUCUUUCGCAGGAGUUUCCUCCUGGUUUCUCAACAGCUCGCAGUCAAG | 0.247
58 | GGUCACGUCUCAAUCAACUCAACUUCAGGAGUUUUCUCCUGCAUACUCAACAGCUCGCAGUCAAG | -0.00692
59 | GGUCACGUCUCAAUCAACUCUUUAGAGGGGGGGAAAACCCCUUUACCCUCCACAUCAACAGCUCGCAGUCAAG | 0.0365
60 | GGUCACGUCUCAAUCAACUCAACAGAGGGGGGGAAAACCCCUUUACCCUCAUCUUCAACAGCUCGCAGUCAAG | 0.275
61 | GGUCACGUCUCAAUCAACUCAAUCUCCAGGGAAACCCCUGGUUUUCUCAACAGCUCGCAGUCAAG | -0.0236
62 | GGUCACGUCUCAAUCAACUCAUUCCCAGGAGUUUUCUCCUGCUUUCUCAACAGCUCGCAGUCAAG | 0.149
63 | GGUCACGUCUCAAUCAACUCAGUCCCAGGAGUUUGCUCCUGCUAAUUCAACAGCUCGCAGUCAAG | -0.0496
64 | GGUCACGUCUCAAUCAACUCAUUUCCAGGAGUUUUCUCCUGCUUUGUCAACAGCUCGCAGUCAAG | 0.0246
65 | GGUCACGUCUCAAUCAACUCUUUUCCCAGGGAAAACCCUGGUAAUCUCAACAGCUCGCAGUCAAG | -0.00474
66 | GGUCACGUCUCAAUCAACUCAUCGGCAGGAGUUUUCUCCUGGAAUUUCAACAGCUCGCAGUCAAG | 0.0369
67 | GGUCACGUCUCAAUCAACUCAUCGCCAGGAGUUUUCUCCUGUUUAUUCAACAGCUCGCAGUCAAG | -0.0302
68 | GGUCACGUCUCAAUCAACUCAUCUUCCAGGGAAAUCCCUGGUAAAUUCAACAGCUCGCAGUCAAG | 0.0142
69 | GGUCACGUCUCAAUCAACUCUUUUUCAGGAGUUUUCUCCUGCUUUCUCAACAGCUCGCAGUCAAG | 0.119
70 | GGUCACGUCUCAAUCAACUCUUCUUCAGGAGUUUACUCCUGUUUACUCAACAGCUCGCAGUCAAG | -0.025
71 | GGUCACGUCUCAAUCAACUCCUUCGAGGGGGGGAAAACCCCUUUACCCUCUAAAUCAACAGCUCGCAGUCAAG | -0.106
72 | GGUCACGUCUCAAUCAACUCUUCUGAGGGGGGGAAAACCCCUUUACCCUCCAAAUCAACAGCUCGCAGUCAAG | -0.147
73 | GGUCACGUCUCAAUCAACUCAAUUCCCAGGGAAACCCCUGGUUUAUUCAACAGCUCGCAGUCAAG | -0.223
74 | GGUCACGUCUCAAUCAACUCAAUUUCCAGGGAAAUCCCUGGUAUAUUCAACAGCUCGCAGUCAAG | 0.102

— paper PMC5892938
